According to publication PMC10668032:
Some of the results follow. At the low end of the ranking the order means little.

Target: SIX1 homeodomain (reference allele) (UniProt Q15475)
Test: universal protein binding microarray
Details: Universal all-10-mer PBM (8x60K, AMADID 030236), 300 nM GST-tagged protein, Alexa Fluor 488 anti-GST; buffer, salt, pH and temperature not stated; high values mean tight binding; most listed sequences are background and not binding sites; double strand, one strand shown

Row | Sequence | binding signal [E-score]
1 | CGCTGTAG | -0.134
2 | CGGGTATC | 0.487
3 | CAATGAGG | -0.164
4 | ACCTCGCA | -0.221
5 | TCCACTAA | -0.00623
6 | CAGTGAAA | -0.0917
7 | CTTGAATA | 0.01
8 | GTGGCTCA | 0.0729
9 | CTAAAGCC | -0.252
10 | CGTCCAAA | -0.265
11 | AATGGCAA | -0.141
12 | GTTAAGAA | -0.0913
13 | GATGATAA | 0.126
14 | CTCAGTGA | 0.0438
15 | ATGTGGGG | -0.0203
16 | CGTTTTAG | -0.18
17 | CACTCATC | -0.0372
18 | AGGGAATA | -0.005
19 | ATCTCTCG | 0.142
20 | CTGTCTCC | -0.0818
21 | AGTCGGCG | -0.273
22 | ACGTACCG | -0.116

Row | Sequence | binding signal [E-score]
23 | AGAACGTC | -0.103
24 | AAAGGCCC | -0.163
25 | ACCTTTTA | -0.15
26 | CGAACTTC | -0.321
27 | AACCGTCT | 0.0013
28 | CAACCAAA | -0.13
29 | AGTGGGAG | -0.0979
30 | CGGTCAGC | -0.111
31 | GCTGCTAC | -0.179
32 | AGTCCTGA | 0.0476
33 | GTGTATTA | 0.271
34 | AGACACCC | 0.335
35 | CATTATAC | 0.28
36 | AGAGTGAT | 0.268
37 | ATGGCTGG | -0.0985
38 | GCTGGAAA | -0.0272
39 | GAGTAGAA | -0.0427
40 | ATACTATG | 0.297
41 | GTAACGCA | -0.16
42 | GCGGGTAA | -0.0604
43 | CAAAGAAG | -0.125
44 | CTAGCCGC | -0.0419

Row | Sequence | binding signal [E-score]
45 | ACTAGGAG | -0.033
46 | CCACCCGC | 0.027
47 | CAACACCA | 0.282
48 | ATTGCTAA | 0.0276
49 | CTGTTTTC | -0.178
50 | ACACCCAG | 0.278
51 | AATGAGGG | -0.0228
52 | ACCATTTC | -0.254
53 | ATCAAGTG | 0.118
54 | GCATACAA | 0.0913
55 | GTACTCCA | -0.0526
56 | AACGTTGG | -0.142
57 | CCGCGTCA | -0.0553
58 | GGTCGCCA | -0.241
59 | CACCGGGC | -0.195
60 | AGAAAGAG | -0.0728
61 | ACCTGGCT | 0.103
62 | GGACAACC | -0.173
63 | CTGAGAGA | 0.0122
64 | ACGGGTAT | 0.435
65 | AGAGCTCC | -0.1
66 | ATCCTATA | 0.296

Row | Sequence | binding signal [E-score]
67 | GCTAAGAC | -0.039
68 | CCAAGGAG | -0.0488
69 | ACATACGT | -0.0428
70 | CTGGTCGA | -0.0879
71 | CAACCTCC | -0.167
72 | CCTTGCGA | 0.0137
73 | AACCATGA | 0.00475
74 | GAACCTCA | -0.076
75 | ATGGAGAC | 0.107
76 | ACACTAGG | 0.0978
77 | GGAGAGAC | 0.0507
78 | CACTACGA | 0.0453
79 | CGCGGAAG | -0.0913
80 | CATCTAGG | 0.144
81 | CAACAATA | 0.0757
82 | ACTTGTAC | -0.0525
83 | GCGTGTGA | 0.113
84 | TAGAACAA | -0.167
85 | ATGGAGTG | -0.104
86 | AGTACGTC | -0.0172
